Assay results published in patent US20100310561A1 (Boehringer Ingelheim, published 2010).

T1: human natriuretic peptide receptor A (NPRA) (human, UniProt P16066 33-1061)
T1 sequence (looked up): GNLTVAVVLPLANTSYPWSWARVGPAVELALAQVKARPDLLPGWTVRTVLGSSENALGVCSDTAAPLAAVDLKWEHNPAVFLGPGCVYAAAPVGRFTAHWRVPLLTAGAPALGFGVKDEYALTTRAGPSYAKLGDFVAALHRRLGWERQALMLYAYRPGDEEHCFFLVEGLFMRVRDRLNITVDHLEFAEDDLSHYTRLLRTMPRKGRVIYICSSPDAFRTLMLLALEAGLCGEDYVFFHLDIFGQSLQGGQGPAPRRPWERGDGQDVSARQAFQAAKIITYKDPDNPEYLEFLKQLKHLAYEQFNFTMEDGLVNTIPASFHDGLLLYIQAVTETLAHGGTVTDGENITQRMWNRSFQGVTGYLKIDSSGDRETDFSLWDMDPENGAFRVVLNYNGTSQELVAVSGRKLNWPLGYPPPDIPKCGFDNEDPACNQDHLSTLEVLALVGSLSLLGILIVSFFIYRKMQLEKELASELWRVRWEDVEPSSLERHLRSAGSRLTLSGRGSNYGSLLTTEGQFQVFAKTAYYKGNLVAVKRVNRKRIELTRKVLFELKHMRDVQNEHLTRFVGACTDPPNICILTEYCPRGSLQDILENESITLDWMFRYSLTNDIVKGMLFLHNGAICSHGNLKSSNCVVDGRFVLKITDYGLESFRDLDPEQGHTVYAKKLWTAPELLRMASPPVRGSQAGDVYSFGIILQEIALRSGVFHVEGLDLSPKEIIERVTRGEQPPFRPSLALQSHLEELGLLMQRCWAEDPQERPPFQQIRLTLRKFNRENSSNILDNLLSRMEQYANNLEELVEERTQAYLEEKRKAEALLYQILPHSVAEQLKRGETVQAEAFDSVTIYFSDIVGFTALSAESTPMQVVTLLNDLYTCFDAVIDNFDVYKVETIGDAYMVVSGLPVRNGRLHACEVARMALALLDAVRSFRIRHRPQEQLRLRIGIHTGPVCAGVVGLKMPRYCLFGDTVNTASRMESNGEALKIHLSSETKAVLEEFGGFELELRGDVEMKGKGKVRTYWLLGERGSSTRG

T2: rat NPRA (rat, UniProt P18910 29-1057)
T2 sequence (looked up): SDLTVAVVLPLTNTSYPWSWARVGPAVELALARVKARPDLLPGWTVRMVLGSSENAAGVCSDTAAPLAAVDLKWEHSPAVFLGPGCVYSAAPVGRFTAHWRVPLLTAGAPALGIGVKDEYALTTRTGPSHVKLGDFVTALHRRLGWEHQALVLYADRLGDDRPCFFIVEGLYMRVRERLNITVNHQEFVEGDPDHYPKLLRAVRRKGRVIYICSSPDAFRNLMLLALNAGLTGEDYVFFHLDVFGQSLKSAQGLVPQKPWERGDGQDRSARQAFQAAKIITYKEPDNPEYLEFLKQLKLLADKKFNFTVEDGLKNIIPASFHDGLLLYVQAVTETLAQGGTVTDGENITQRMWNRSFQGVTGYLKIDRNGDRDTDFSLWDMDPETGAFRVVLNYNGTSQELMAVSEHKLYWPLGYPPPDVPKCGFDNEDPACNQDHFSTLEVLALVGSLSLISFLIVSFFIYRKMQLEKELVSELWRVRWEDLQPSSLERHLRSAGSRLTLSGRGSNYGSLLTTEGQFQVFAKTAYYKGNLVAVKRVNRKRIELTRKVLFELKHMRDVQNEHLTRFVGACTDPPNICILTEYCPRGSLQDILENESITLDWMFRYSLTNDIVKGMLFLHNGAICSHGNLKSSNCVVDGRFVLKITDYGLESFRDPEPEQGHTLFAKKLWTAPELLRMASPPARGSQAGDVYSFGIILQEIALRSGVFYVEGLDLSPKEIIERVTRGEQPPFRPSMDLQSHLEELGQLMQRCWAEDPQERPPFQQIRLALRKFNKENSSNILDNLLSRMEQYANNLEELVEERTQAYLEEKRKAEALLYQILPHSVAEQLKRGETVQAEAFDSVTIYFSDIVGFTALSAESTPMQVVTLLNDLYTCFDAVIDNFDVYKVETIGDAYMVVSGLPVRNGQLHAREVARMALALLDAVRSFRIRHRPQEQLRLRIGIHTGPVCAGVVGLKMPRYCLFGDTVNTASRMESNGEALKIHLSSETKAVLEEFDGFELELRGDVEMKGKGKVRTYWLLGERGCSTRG

T3: canine NPRA (canine, UniProt A0A8I3MHU3 32-1060)
T3 sequence: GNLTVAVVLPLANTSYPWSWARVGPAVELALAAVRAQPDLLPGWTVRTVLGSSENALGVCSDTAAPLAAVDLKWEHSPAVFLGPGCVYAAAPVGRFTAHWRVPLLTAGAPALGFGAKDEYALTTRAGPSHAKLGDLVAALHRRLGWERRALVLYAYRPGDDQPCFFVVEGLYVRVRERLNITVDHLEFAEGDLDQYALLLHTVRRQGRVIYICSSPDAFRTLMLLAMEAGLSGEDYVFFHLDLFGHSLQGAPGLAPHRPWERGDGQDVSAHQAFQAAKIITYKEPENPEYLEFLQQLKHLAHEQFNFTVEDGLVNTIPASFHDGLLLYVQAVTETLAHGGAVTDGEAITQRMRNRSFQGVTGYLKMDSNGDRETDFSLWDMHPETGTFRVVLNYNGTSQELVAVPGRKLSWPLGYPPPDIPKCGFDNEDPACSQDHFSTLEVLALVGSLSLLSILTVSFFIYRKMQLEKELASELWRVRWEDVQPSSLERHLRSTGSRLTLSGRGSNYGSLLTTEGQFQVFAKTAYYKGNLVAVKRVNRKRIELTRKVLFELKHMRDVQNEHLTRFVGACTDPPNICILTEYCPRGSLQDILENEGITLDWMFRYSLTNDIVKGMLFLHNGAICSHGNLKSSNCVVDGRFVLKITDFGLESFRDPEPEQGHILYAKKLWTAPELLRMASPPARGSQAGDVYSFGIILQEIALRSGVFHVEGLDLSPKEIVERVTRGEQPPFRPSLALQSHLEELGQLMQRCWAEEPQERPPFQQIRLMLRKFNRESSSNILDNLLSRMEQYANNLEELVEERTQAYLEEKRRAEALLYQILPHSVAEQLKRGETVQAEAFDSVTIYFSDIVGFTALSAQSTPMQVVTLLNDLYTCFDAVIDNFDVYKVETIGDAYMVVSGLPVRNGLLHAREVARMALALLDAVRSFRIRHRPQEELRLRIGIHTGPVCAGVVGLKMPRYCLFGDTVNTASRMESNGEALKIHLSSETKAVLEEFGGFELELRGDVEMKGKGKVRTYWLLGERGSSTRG


How the values were obtained:
Experiment in all cases: cell-based or functional assay
[1] = target: T1, human natriuretic peptide receptor A …
rat NPRA = target: T2, rat NPRA
canine NPRA = target: T3, canine NPRA
monkey NPRA = monkey NPRA (monkey)

Binder | cGMP EC50 (nM) Lab 1 (Results 1) [1] | cGMP EC50 (nM) Lab 1 (Results 2) [1] | cGMP EC50 (nM) Lab 2 (Results 1) [1] | cGMP EC50 (nM) Rat NPRA (rat NPRA) | cGMP EC50 (nM) Dog NPRA (canine NPRA) | cGMP EC50 (nM) Monkey NPRA (monkey NPRA)
Construct 9, ANPXY-L2-Fc1AB linked to a second ANPXY-L2-Fc1AB (semi-synthetic dimer) (Fc fusion) SLRRSSCFGGRMDRIGAQSGLGCNSFRYGG[not shown - human IgG1 Fc] | 128 nM | 118 nM | 88 nM |  |  | 
Construct 14, ANPXY-L5a-Fc1AB linked to a second ANPXY-L5a-Fc1AB (semi-synthetic, 16 aa linker) (Fc fusion) SLRRSSCFGGRMDRIGAQSGLGCNSFRYGSGGSGGSGGSGGSGG[not shown - human IgG1 Fc] |  |  | 14 nM |  |  | 
Construct 2, ANPXY-L4-Fc1AB (recombinant) (Fc fusion, also called ANP28-11aa-hFc1) SLRRSSCFGGRMDRIGAQSGLGCNSFRYGGSGGSGGSGG[not shown - human IgG1 Fc] |  |  |  | 55 nM | 31 nM | 27 nM
Construct 3, ANPXY-L6-Fc1AB (recombinant) (Fc fusion, also called ANP28-20aa-hFc1) SLRRSSCFGGRMDRIGAQSGLGCNSFRYGGSGGSGGSGGSGGSGGSGG[not shown - human IgG1 Fc] |  |  |  | 25 nM | 11 nM | 12 nM
